Hit rate of the full screen: of about 340,000 compounds, about 6,900 (2%) were called active. Cut-off read from the data, not from the text of the source: active = inhibition above about 30%; inactive = below that, where a call was filed. Only a part is listed here, and it is no random draw. The source gives no active or inactive call for entries shown without one.

This experiment concerns the target D(2) dopamine receptor (Homo sapiens) (UniProt P14416). As to the kind of experiment: HTS Assay for Allosteric Antagonists of the Human D2 Dopamine Receptor: Primary Screen for Antagonists. Note: 0% is about no effect. Conditions: HEK293 TREx D2 cells, calcium flux, dopamine EC80; at 10 µM; stronger effect = higher value. Summed up: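 Calcium mobilization kinetics were recorded at 1 s intervals in tetracycline-induced HEK293 T-REx D2 cells, first for 180 s after compound addition and then 180 s after EC80 dopamine.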
Chain of UniProt P14416 (P14416 whole entry, looked up): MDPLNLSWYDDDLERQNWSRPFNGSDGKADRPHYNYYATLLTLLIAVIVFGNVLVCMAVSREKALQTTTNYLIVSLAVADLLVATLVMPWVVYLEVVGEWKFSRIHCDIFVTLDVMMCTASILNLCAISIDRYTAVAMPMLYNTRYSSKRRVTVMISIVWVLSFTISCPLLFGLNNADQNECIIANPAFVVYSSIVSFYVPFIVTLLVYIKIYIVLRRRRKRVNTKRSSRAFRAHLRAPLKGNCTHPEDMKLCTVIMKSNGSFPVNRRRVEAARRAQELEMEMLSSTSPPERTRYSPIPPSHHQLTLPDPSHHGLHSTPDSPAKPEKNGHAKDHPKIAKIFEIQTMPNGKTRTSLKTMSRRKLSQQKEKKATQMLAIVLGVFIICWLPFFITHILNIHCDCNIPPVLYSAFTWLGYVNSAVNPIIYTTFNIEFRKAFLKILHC
In general terms: Calcium assays in cells follow changes in intracellular calcium, usually with a dye or a luminescent sensor.
Broadly, the inhibition is the relative decrease from the control value, in per cent. For `CCOC(=O)N1CCc2c(sc(NCc3ccc(OCC)cc3)c2C(=O)Nc2ccc(OC)cc2OC)C1`, the inhibition was -8.59%. The figure for `Cc1ccc(Nc2c([N+](=O)[O-])c(=O)oc3ccccc23)cc1` is active: 31.5%; for `O=C(NC1CCCC1)c1ccc(CSc2nc3ccncc3n2Cc2ccccc2F)cc1` it is -6.22%. Turning to `CC1=C(C(=O)Nc2cccnc2)C(c2ccc(F)cc2)n2nc(SCc3ccccc3F)nc2N1` (centres undefined), the inhibition is 2.21%. Regarding `Cc1cccc(S(=O)Cc2ccc(C(=O)NC3CCN(Cc4ccccc4)CC3)o2)c1` (centres undefined), the inhibition was active: 44.4%. Under `CCN(C(=O)c1cc2c(Cl)nc3ccccc3c2s1)c1cccc(Cl)c1` stands -10.3%; under `CCOC(=O)c1cnc2c(C)c(Cl)ccc2c1Nc1ccc(C)cc1C`, 10.3%; under `COc1ccc(C(CNC(=O)c2cccc(S(=O)(=O)N3CCCC(C)C3)c2)N(C)C)cc1` (centres undefined), active: 76.4%. Under `CN1c2cc(Cl)ccc2-c2nc(SCC(=O)Nc3ccc(F)cc3F)ncc2S1(=O)=O` stands -0.516%; under `CCOc1ccccc1/C=N/NC(=O)C[n+]1ccccc1`, active: 33.2%. As to `Cc1ccc(NC(=O)c2sc(-n3nc(C)c(CCC(C)C)c3C)nc2C)cc1C`, the inhibition is 18.9%. As for `Cc1nc2ccn(Cc3cccs3)c(=O)c2cc1C(=O)N1CCN(c2ccc(F)cc2)CC1`, the inhibition is -0.713%. Under `COc1ccc(-c2cc3c(=O)n(CC(=O)NCCCN4CCC(Cc5ccccc5)CC4)ncn3n2)cc1` stands active: 89.1%; under `O=C(CN(c1ccc(Cl)c(C(F)(F)F)c1)S(=O)(=O)c1ccccc1)N1CCc2ccccc2C1`, 2.62%. Under `COc1ccccc1CNc1cc(-c2ccccc2)nc2nncn12` stands -5.92%. With `CCOc1cccc(C(=O)Nc2c(C(=O)c3ccc(OC)cc3)oc3ccccc23)c1`, the inhibition was -11.1%. The figure for `CCCCOC(=O)c1ccc(NC(=O)c2cc(-c3ccccc3)on2)cc1` is 11.4%; for `COc1ccc(N2Cc3cccc(C(=O)Nc4ccc(C(C)C)cc4)c3C2=O)cc1` it is 0.174%; for `CCc1ccccc1N(C)C(=O)C1CCCN(c2ncnc3onc(-c4ccc(F)cc4)c23)C1` (centres undefined) it is -2.61%. Consider `CCCN1CCc2nc(N3CCN(CC)CC3)ncc2C1`, for which the inhibition worked out at 3.22%.

As to `Cc1ccc(OCCn2c(CNc3cccc(C)c3)nc3ccccc32)cc1`, the inhibition was -6.22%.

For the compound `COc1ccc2c(c1)Cc1sc(NC(=O)c3ccccc3Br)nc1-2`, the inhibition came out at 3.69%. Under `CCn1c(SCC(=O)Nc2ccc(C)cc2Br)nnc1-c1nonc1NC(C)=O` stands 4.56%.

With `CCc1ccc(NC(=O)c2ccc3c(c2)N(Cc2ccc(C)cc2)CCS3)cc1`, the inhibition was -14.1%. The figure for `O=C(CC1N=C2c3ccccc3N=C(SCC(=O)Nc3cccc(Cl)c3)N2C1=O)NCc1cccs1` (centres undefined) is -11%. For `COc1ccc(CCNC(=O)Cn2cc(S(=O)(=O)Cc3ccccc3F)c3ccccc32)cc1OC`, the inhibition is 2.75%. The figure for `CC1CCN(S(=O)(=O)c2ccc(N3CCCCS3(=O)=O)cc2)CC1` is 4.18%.

Turning to `Cc1cccc(Cn2c(=O)n(CCC(=O)NCc3ccc4c(c3)OCO4)c(=O)c3sccc32)c1`, the inhibition is -24.7%. Under `Cc1ccc2c(=O)cc(C(=O)Nc3nnc(CC(C)C)s3)oc2c1C` stands -2.7%; under `COc1cccc(CNC(=O)CSc2nc(=O)[nH]c3c2CCCC3)c1`, -1.4%; under `Oc1c(C(c2ccc(Cl)cc2Cl)N2CCOCC2)sc2nc(-c3ccco3)nn12` (centres undefined), 14.2%. Under `O=C(NCc1ccc(F)cc1)c1ccc(CS(=O)(=O)c2ccc(Cl)cc2)o1` stands -6.59%.

`CCc1ccc(NC(=O)Cn2c(=O)c(-c3ccccc3NC(C)=O)nc3ccccc32)cc1`: the inhibition was -24.7%. The figure for `CCOc1ccc(S(=O)(=O)N(CC(=O)NCCSCc2ccc(C)cc2)c2ccccc2)cc1` is -3.28%. Turning to `C[C@@H]1NC(=O)[C@H](CCCN=C(N)N)NC(=O)c2cc([N+](=O)[O-])cc(I)c2OCC[C@@H](C(N)=O)NC1=O`, the inhibition is active: 31.9%. Consider `CCn1ccc2cc(S(=O)(=O)N3CCCN(C(=O)Nc4ccccc4C(F)(F)F)CC3)ccc21`, for which the inhibition was 21.7%. Turning to `Cc1cccc(N2C(=O)CSC23C(=O)N(Cc2cccc(F)c2)c2ccccc23)c1` (centres undefined), the inhibition is -15.5%.

`CN1CCN(C(CNC(=O)C(=O)Nc2ccccc2)c2ccc3c(c2)OCO3)CC1` (centres undefined): the inhibition stood at 15.7%. As to `CCOC(=O)c1c(C)n(-c2ccccc2)c2ccc(OC(=O)c3ccccc3)cc12`, the inhibition was -0.96%.

Regarding `Cc1cccc(-c2noc(CN(C(=O)COc3ccc(C(C)C)cc3)C(C)C)n2)c1`, the inhibition was -14.6%. Under `Cc1ccc(C)c(CSc2nc3ncccc3[nH]2)c1` stands 7.27%; under `COc1ccc(C2=NS(=O)(=O)N(C)C(C(=O)Nc3cc(C)ccc3O)=C2)cc1OC`, -1.25%; under `Cc1nc(N2C(=O)c3oc4ccccc4c(=O)c3C2c2ccccc2F)sc1C` (centres undefined), -5.94%. Under `COc1cccc(N2CCN(S(=O)(=O)c3cc(Br)cc4c3N(C(=O)C3CC3)CC4)CC2)c1` stands 4.88%.

Regarding `COc1ccc(-c2cc(C(=O)NCc3cc(OC)c(OC)c(OC)c3)[nH]n2)cc1`, the inhibition is -16.4%. Under `CCc1ccc(S(=O)(=O)c2nnn3c2nc(N2CCC(C)CC2)c2cc(Cl)ccc23)cc1` stands -6.88%.

In the case of `Cc1cccc(OCC(=O)Nc2c(C)ccc3nsnc23)c1C`, the inhibition was -0.87%. The figure for `Cc1ccc(Cl)c2c1N[C@@H](c1ccc(C(=O)O)cc1)[C@H]1CC=C[C@@H]21` is -18.3%. Under `Cc1ccc(C)c(NC(=O)CCN2C(=O)c3ccccc3Sc3ncccc32)c1` stands 20.1%. As to `O=C(CSc1ncc(S(=O)(=O)c2ccc(Br)cc2)c(=O)[nH]1)NCc1ccc(Cl)cc1`, the inhibition stood at 9.04%.

For the compound `CCOc1ccc(-c2nc(CSCC(=O)N3CCN(c4cccc(C(F)(F)F)c4)CC3)c(C)o2)cc1`, the inhibition came to 3.37%. On to `Cc1c(CC(=O)NCCc2ccccc2F)c(=O)oc2c(C)c3occ(C(C)(C)C)c3cc12`, for which the inhibition is 13%. Consider `Cc1csc(NC(=O)C2CC(=O)N(c3ccc(C)c(C)c3)C2)n1` (centres undefined), for which the inhibition was active: 50.8%.

Regarding `COc1cccc(N2CCN(C(=O)c3ccc4c(=O)n(CCc5ccccc5)c(=O)[nH]c4c3)CC2)c1`, the inhibition was -7.65%. Under `COc1ccc(NC(=O)CSc2cn(CC(=O)N3CCOCC3)c3ccccc23)cc1OC` stands 15.2%; under `CCOC(=O)c1c(C)n(C)c2ccc(OC)c(NC(=O)CCN3CCC(Cc4ccccc4)CC3)c12`, active: 90.8%. As to `COc1ccccc1CNS(=O)(=O)c1cc(C(=O)Nc2cccc(C(F)(F)F)c2)ccc1F`, the inhibition was -23.4%. The figure for `CC(C)COC(=O)/C(C#N)=C\c1ccc(-c2ccccc2Cl)o1` is 0.0321%. Under `COc1cccc(OC)c1OCCCCN1CCC(Cc2ccccc2)CC1` stands active: 76.3%; under `Cc1ccc2c(c1)N(CCC(=O)NCc1ccc(F)cc1)C(=O)CO2`, -15.3%. On to `CCOCCc1nn2c(=O)cc(COC(=O)CNC(=O)c3ccc(C(C)(C)C)cc3)nc2s1`, for which the inhibition worked out at 4.47%.

As to `COc1cc(NC(=O)CCc2c(C)nn(-c3ccc4nncn4n3)c2C)cc(OC)c1OC`, the inhibition is -23.2%. As to `Cc1ccc(Cl)cc1N1CCN(S(=O)(=O)c2ccc3[nH]c4c(c3c2)CCCCC4)CC1`, the inhibition is -5.14%. For `Fc1ccc(-n2ncc3c(NCCCN4CCOCC4)ncnc32)cc1`, the inhibition is -9.73%.

In the case of `CCOC(=O)c1c(NC(=O)CSc2cn(CCNC(=O)c3ccccc3F)c3ccccc23)sc2c1CCC2`, the inhibition amounted to 7.96%. On to `COc1cc(-c2nnc(SCCOc3ccc(Cl)cc3C)o2)cc(OC)c1OC`, for which the inhibition worked out at 1.1%. In the case of `COC(=O)c1cc(S(=O)(=O)NCC2CCN(Cc3ccc(F)cc3)CC2)cn1C`, the inhibition is -8.53%. Under `CCCSc1ncc(Cl)c(C(=O)Nc2ccc(S(=O)(=O)Nc3ncccn3)cc2)n1` stands -21%. As for `COc1ccc(NC(=O)CSc2ncc3c(n2)-c2cc(Cl)ccc2N(Cc2ccccc2F)S3(=O)=O)cc1`, the inhibition is 10.3%.

As for `Cc1cc(C)c2c(=O)cc(C(=O)Nc3sc4c(c3C(=O)NCc3ccccc3)CCCC4)oc2c1`, the inhibition was -7.12%. The figure for `COc1cc(Br)c(CCNC(=O)c2ccco2)cc1OC` is active: 36.5%. Under `Cc1cccc(CSc2ncc(CO)n2Cc2ccc(F)cc2)c1` stands 4.01%; under `O=C(Nc1ccc2oc(-c3ccccc3F)nc2c1)c1ccccc1Cl`, -12.5%. The figure for `O=C(Nc1ccc(Cl)cc1)c1nc[nH]c1C(=O)N1CCc2ccccc2C1` is active: 50.9%. Take `COc1cccc2c1OC1(C)CC2/C(=C(\C)O)C(=O)N1` (centres undefined): the inhibition was active: 51.3%. Under `Cc1ccc2c(c1)-c1nc(-c3ccc(Cl)cc3)cc(-c3coc4ccccc4c3=O)c1CO2` stands 10.7%. As for `CCN(C(=O)COC(=O)CCc1ccc(OC)cc1)c1c(N)n(Cc2ccccc2)c(=O)[nH]c1=O`, the inhibition is active: 33.8%.

Consider `CN1CCN(C(CNC(=O)c2cccc(F)c2)c2ccc3c(c2)OCO3)CC1` (centres undefined), for which the inhibition is -6.15%. Under `CCOc1ccc(-n2c(Cc3ccccc3)nnc2SCc2nc(-c3ccccc3OC)no2)cc1` stands 11.1%. In the case of `Cc1cc(C)c(NC(=O)C2CCN(c3nc4ccccc4[nH]3)CC2)c(C)c1`, the inhibition was -22.5%. Turning to `C=CCNCCCCOc1ccccc1-c1ccccc1`, the inhibition is active: 49.2%.

As to `CC(C)CCNC(=O)CCCN1C(=O)c2ccccc2Sc2ncccc21`, the inhibition turned out to be 2.32%. Under `COc1cc(-c2noc(CN3CCN(c4ccccc4)CC3)n2)cc(OC)c1OC` stands -14.2%; under `COc1ccccc1-c1nc2c(c(SCc3cccc(Cl)c3)n1)Cc1c(CO)cnc(C)c1O2`, -17.9%.

Consider `CCOC(=O)c1ccccc1NC(=O)N1CCc2c(sc(C)c2CC)C1c1ccccc1` (centres undefined), for which the inhibition was 4.81%. `Cc1cccc(NC(=O)C(=O)NCC(c2ccc3c(c2)OCO3)N2CCOCC2)c1C` (centres undefined): the inhibition came to 10.4%. The figure for `CCc1ccc(C2c3c(-c4ccccc4O)n[nH]c3C(=O)N2Cc2ccncc2)cc1` (centres undefined) is -4.37%; for `COc1cc(OC)cc(C(=O)Oc2c(Sc3ccccc3)c(C)nn2C(C)(C)C)c1` it is -3.61%; for `Cc1cn2c(=O)cc(COC(=O)c3cccc(NC(=O)COc4ccccc4Cl)c3)nc2s1` it is -21.7%.

Turning to `CCc1ccc(CNC(=O)c2sc3ncccc3c2-n2c(C)ccc2C)cc1`, the inhibition was -1.5%. The figure for `Cc1ccc(-c2nc3cc(C(C)C)ccc3o2)cc1NC(=O)c1cc2ccccc2o1` is 0.308%. Under `O=C(Cn1ccn(-c2ccc(F)c(F)c2)c(=O)c1=O)Nc1ccccc1F` stands -0.585%; under `CCOc1ccccc1CNS(=O)(=O)c1ccc2c(c1)CCCN2C(C)=O`, -1.19%. The figure for `Cc1ccc(OCC(=O)Nc2ccc(S(=O)(=O)Nc3cc(C)nc(C)n3)cc2)c(Br)c1` is 18.9%.

Source of the values: PubChem BioAssay AID485344 (National Center for Advancing Translational Sciences (NCATS), 2010).
